Reference: PubChem BioAssay AID624417 (National Center for Advancing Translational Sciences (NCATS), 2012)
In all, about 410,000 compounds went through this assay and about 6,400 (1.6%) were called active. The inconclusive results got no clear call from the source; some entries with a clear call stand among them for comparison. The call rests on the fitted dose curve; in most records, active means well fitted inhibition curve with a large enough effect; inconclusive means small, poorly fitted or top-dose-only effect; inactive means no such curve, though single readings can be large or run the other way. Potencies beside an inconclusive call are fits to weak or partial responses and may not hold up.

molecular target: Glucagon-like peptide 1 receptor (Homo sapiens) (UniProt P43220); assay: qHTS of GLP-1 Receptor Inverse Agonists (Inhibition Mode); settings: HEK293 GLP-1R CRE-luciferase, luminescence, 24 h, GLP-1R form is constitutively active; series mostly up to 38.3 µM; further: nearly all actives have a fitted effect of over 55% in size
How it was run: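 Constitutively active GLP-1R drives a cAMP-responsive luciferase in stably transfected HEK293 cells; test compounds are added after overnight (12 h) attachment and left 24 hr, and signal loss in luminescence marks inhibition.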
Potency means the concentration at half of the fitted maximal effect; tags describe the fitted curve by direction and shape.

UniProt P43220, sequence (P43220 whole entry, looked up): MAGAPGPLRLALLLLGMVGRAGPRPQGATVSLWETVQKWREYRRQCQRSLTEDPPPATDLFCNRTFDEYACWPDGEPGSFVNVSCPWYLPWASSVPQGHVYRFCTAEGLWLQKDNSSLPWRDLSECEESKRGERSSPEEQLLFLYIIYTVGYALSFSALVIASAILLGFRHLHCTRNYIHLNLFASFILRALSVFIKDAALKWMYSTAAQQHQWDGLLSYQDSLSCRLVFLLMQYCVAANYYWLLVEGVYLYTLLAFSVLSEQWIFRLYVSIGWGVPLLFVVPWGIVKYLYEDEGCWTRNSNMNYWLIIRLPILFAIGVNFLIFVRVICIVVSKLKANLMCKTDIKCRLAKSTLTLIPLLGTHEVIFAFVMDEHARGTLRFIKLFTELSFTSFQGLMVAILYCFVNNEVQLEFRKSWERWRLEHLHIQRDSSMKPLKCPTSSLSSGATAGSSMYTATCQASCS

Potency, inactive:
Cc1sc2ncn(CC(=O)Nc3cccc(C(F)(F)F)c3)c(=O)c2c1S(=O)(=O)N1CCC(C)CC1, CCOC(=O)N1CCN(C(=O)Nc2ccc3nc(C)c(C)nc3c2)CC1, COc1cccc(NC(=O)Nc2ccc3c(c2)nnn3C)c1

Potency, inconclusive:
COc1ccc(CCC(C)NCc2ccc(C(F)(F)F)cc2)cc1 (configuration not stated) 28.2 µM [inhibitor, single point], CCCCC(CC)C(=O)Nc1cc([N+](=O)[O-])ccc1F (configuration not stated) 31.6 µM [inhibitor, single point], COc1cccc(/C=C2/Sc3ccc(C(=O)NCCN4CCCC4)cc3NC2=O)c1 17.8 µM [inhibitor, partial curve, poor fit], COC(=O)[C@]12CCCCC=C1N(Cc1ccc3c(c1)OCO3)C(=O)[C@H](CC(=O)N1CCC(c3ccccc3)CC1)C2 15.8 µM [inhibitor, single point], O=C(Nc1cc(-c2ccccc2)cs1)c1ccco1 28.2 µM [inhibitor, single point], CC(=O)c1cccc(CN2CCCCC2C(=O)Nc2ccc(Oc3ccccc3)nc2)c1 (configuration not stated) 11.2 µM [inhibitor, single point], Cn1c(Cc2ccccc2)nnc1SCc1nc2ccccc2c(=O)[nH]1 0.501 µM [inhibitor, full curve, poor fit], CSc1ccc(CN(C)CC(=O)N(C)CC(=O)Nc2ccccc2Br)cc1 10 µM [inhibitor, partial curve, poor fit], CCCN1CN(CCc2ccccc2)CNC1=S 12.6 µM [inhibitor, partial curve, poor fit], O=C(Nc1ccccn1)c1ccc(C(=O)c2ccccc2)cc1 8.91 µM [inhibitor, partial curve, poor fit], O=C(Cn1cc(S(=O)(=O)Cc2ccccc2Cl)c2ccccc21)NCc1ccccc1Cl 25.1 µM [inhibitor, single point], CC(C)(C)C(=O)c1cn(CC(=O)NCc2ccc3c(c2)OCO3)c2ccccc12 10 µM [inhibitor, partial curve, poor fit], CCOc1ccccc1Oc1cn[nH]c1-c1ccc(OC)cc1O 10 µM [inhibitor, partial curve, poor fit], Cc1cccc(NC(=O)c2ccc(S(=O)(=O)N(C)c3ccccc3)cc2)n1 10 µM [inhibitor, partial curve, poor fit]
